Assay results taken from the CheMixHub ionic liquid set.
This continues a long series; more values of the same kind are listed elsewhere.

Assay: xn = mol fraction of the nth substance listed
Conditions: 101 kPa; for viscosity: x2 = 0.007156

CCCCCCCCCCCCCCCC[N+](C)(C)C.[Br-] + NCC(=O)O + O
viscosity [mPa·s]
Conditions	x1 = 3.5e-06	x1 = 8.29e-06	x1 = 1.143e-05	x1 = 1.456e-05	x1 = 1.751e-05	x1 = 2.119e-05	x1 = 2.359e-05	x1 = 2.783e-05	x1 = 3.206e-05	x1 = 3.612e-05
308.15 K	0.756	0.76	0.761	0.764	0.765	0.769	0.775	0.78	0.786	0.791
313.15 K	0.685	0.687	0.69	0.692	0.695	0.697	0.7	0.706	0.71	0.714

CCCCCCCCCCCCCCCC[n+]1ccccc1.[Cl-] + NCC(=O)O + O
308.15 K
Conditions	electrical conductivity [S/m]
x2 = 0.0002, x1 = 6.725e-05	0.00423
x2 = 0.0002, x1 = 7.519e-05	0.00448
x2 = 0.0002, x1 = 8.294e-05	0.00469
x2 = 0.0002, x1 = 9.033e-05	0.00489
x2 = 0.0002, x1 = 9.736e-05	0.00508
x2 = 0.0002, x1 = 0.0001042	0.00523
x2 = 0.0002, x1 = 0.0001107	0.0054
x2 = 0.0002, x1 = 0.000117	0.00555
x2 = 0.0003638, x1 = 4.871e-05	0.00395
x2 = 0.0003638, x1 = 5.051e-05	0.00402
x2 = 0.0003638, x1 = 5.935e-05	0.0043
x2 = 0.0003638, x1 = 6.765e-05	0.00457
x2 = 0.0003638, x1 = 7.577e-05	0.00479
x2 = 0.0003638, x1 = 8.352e-05	0.00501
x2 = 0.0003638, x1 = 9.092e-05	0.00521
x2 = 0.0003638, x1 = 9.813e-05	0.00539
x2 = 0.0003638, x1 = 0.000105	0.00555
x2 = 0.0003638, x1 = 0.0001115	0.00572
x2 = 0.0003638, x1 = 0.0001178	0.00587
x2 = 0.0003639, x1 = 5.4e-07	0.000474
x2 = 0.0003639, x1 = 9e-07	0.000597
x2 = 0.0003639, x1 = 1.62e-06	0.000695
x2 = 0.0003639, x1 = 2.35e-06	0.000778
x2 = 0.0003639, x1 = 2.89e-06	0.0009
x2 = 0.0003639, x1 = 3.79e-06	0.000957
x2 = 0.0003639, x1 = 4.51e-06	0.001121
x2 = 0.0003639, x1 = 5.59e-06	0.00128
x2 = 0.0003639, x1 = 6.68e-06	0.001413
x2 = 0.0003639, x1 = 7.76e-06	0.00156
x2 = 0.0003639, x1 = 8.84e-06	0.001712
x2 = 0.0003639, x1 = 9.92e-06	0.001841
x2 = 0.0003639, x1 = 1.1e-05	0.00198
x2 = 0.0003639, x1 = 1.317e-05	0.00219
x2 = 0.0003639, x1 = 1.533e-05	0.00237
x2 = 0.0003639, x1 = 1.75e-05	0.00241
x2 = 0.0003639, x1 = 1.966e-05	0.00265
x2 = 0.0003639, x1 = 2.165e-05	0.00277
x2 = 0.0003639, x1 = 2.363e-05	0.00289
x2 = 0.0003639, x1 = 2.58e-05	0.00299
x2 = 0.0003639, x1 = 2.977e-05	0.00318
x2 = 0.0003639, x1 = 3.374e-05	0.00337
x2 = 0.0003639, x1 = 3.752e-05	0.00352
x2 = 0.0003639, x1 = 4.131e-05	0.00368
x2 = 0.0003639, x1 = 4.51e-05	0.00383
x2 = 0.0009181, x1 = 2.404e-05	0.00263
x2 = 0.0009181, x1 = 2.602e-05	0.00275
x2 = 0.0009181, x1 = 3.018e-05	0.00296
x2 = 0.0009181, x1 = 3.416e-05	0.00313
x2 = 0.0009181, x1 = 3.813e-05	0.00325
x2 = 0.0009181, x1 = 4.193e-05	0.00343
x2 = 0.0009181, x1 = 4.572e-05	0.00357
x2 = 0.0009181, x1 = 4.934e-05	0.00371
x2 = 0.0009181, x1 = 5.114e-05	0.00378
x2 = 0.0009181, x1 = 6.018e-05	0.00405
x2 = 0.0009181, x1 = 6.867e-05	0.00435
x2 = 0.0009181, x1 = 7.68e-05	0.00458
x2 = 0.0009181, x1 = 8.457e-05	0.0048
x2 = 0.0009181, x1 = 9.216e-05	0.005
x2 = 0.0009181, x1 = 9.939e-05	0.00518
x2 = 0.0009181, x1 = 0.0001062	0.00535
x2 = 0.0009181, x1 = 0.0001129	0.00551
x2 = 0.0009181, x1 = 0.0001194	0.00565
x2 = 0.0009182, x1 = 5.4e-07	0.000272
x2 = 0.0009182, x1 = 9e-07	0.000333
x2 = 0.0009182, x1 = 1.63e-06	0.000398
x2 = 0.0009182, x1 = 2.35e-06	0.000428
x2 = 0.0009182, x1 = 2.89e-06	0.000525
x2 = 0.0009182, x1 = 3.8e-06	0.000653
x2 = 0.0009182, x1 = 4.52e-06	0.00076
x2 = 0.0009182, x1 = 5.6e-06	0.000956
x2 = 0.0009182, x1 = 6.87e-06	0.00108
x2 = 0.0009182, x1 = 7.95e-06	0.00119
x2 = 0.0009182, x1 = 9.04e-06	0.00138
x2 = 0.0009182, x1 = 1.012e-05	0.00156
x2 = 0.0009182, x1 = 1.12e-05	0.00166
x2 = 0.0009182, x1 = 1.337e-05	0.00187
x2 = 0.0009182, x1 = 1.554e-05	0.00212
x2 = 0.0009182, x1 = 1.771e-05	0.0023
x2 = 0.0009182, x1 = 1.988e-05	0.00245
x2 = 0.0009182, x1 = 2.187e-05	0.00255
x2 = 0.001802, x1 = 5.4e-07	0.000414
x2 = 0.001802, x1 = 9.1e-07	0.000474
x2 = 0.001802, x1 = 1.63e-06	0.000593
x2 = 0.001802, x1 = 2.36e-06	0.000702
x2 = 0.001802, x1 = 2.9e-06	0.000764
x2 = 0.001802, x1 = 3.81e-06	0.000892
x2 = 0.001802, x1 = 4.53e-06	0.000951
x2 = 0.001802, x1 = 5.62e-06	0.001112
x2 = 0.001802, x1 = 6.89e-06	0.00128
x2 = 0.001802, x1 = 7.97e-06	0.00138
x2 = 0.001802, x1 = 9.06e-06	0.0015
x2 = 0.001802, x1 = 1.015e-05	0.00166
x2 = 0.001802, x1 = 1.124e-05	0.00176
x2 = 0.001802, x1 = 1.341e-05	0.00201
x2 = 0.001802, x1 = 1.559e-05	0.00222
x2 = 0.001802, x1 = 1.776e-05	0.00241
x2 = 0.001802, x1 = 1.993e-05	0.00252
x2 = 0.001802, x1 = 2.193e-05	0.00268
x2 = 0.001802, x1 = 2.41e-05	0.0028
x2 = 0.001802, x1 = 2.61e-05	0.0029
x2 = 0.001802, x1 = 3.026e-05	0.00309
x2 = 0.001802, x1 = 3.425e-05	0.00326
x2 = 0.001802, x1 = 3.824e-05	0.00342
x2 = 0.001802, x1 = 4.204e-05	0.00356
x2 = 0.001802, x1 = 4.585e-05	0.0037
x2 = 0.001802, x1 = 4.947e-05	0.00384
x2 = 0.001802, x1 = 5.128e-05	0.00392
x2 = 0.001802, x1 = 6.035e-05	0.0042
x2 = 0.001802, x1 = 6.886e-05	0.00448
x2 = 0.001802, x1 = 7.702e-05	0.00472
x2 = 0.001802, x1 = 8.481e-05	0.00494
x2 = 0.001802, x1 = 9.242e-05	0.00513
x2 = 0.001802, x1 = 9.967e-05	0.00531
x2 = 0.001802, x1 = 0.0001066	0.00547
x2 = 0.001802, x1 = 0.0001133	0.00567
x2 = 0.001802, x1 = 0.0001198	0.00577
